# Screen size: about 310,000 compounds; about 18,000 (5.8%) were called active. Inconclusive means that the source gave no clear call. Such entries were picked first, then a sample of the others. Calls follow the shape of the dose curve; as a rule, active = well fitted inhibition curve with a large enough effect; inconclusive = small, poorly fitted or top-dose-only effect, or another doubt; inactive = no such curve, though single readings can be large or run the other way. No potency is given beside an inconclusive call; the fits are too rough.
# Experiment: Primary qHTS for delayed death inhibitors of the malarial parasite plastid, 48 hour incubation
# Conditions: P. falciparum luciferase growth in erythrocytes; series mostly up to 28.7 µM; activity change, negative = inhibition: at the top concentration
# Procedure, shortened: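 Erythrocytes infected with P. falciparum carrying an integrated firefly luciferase reporter (2% hematocrit, 0.1% parasitemia final) were exposed to compounds in RPMI 1640 with 0.5% Albumax at 37 C, 5% CO2. Growth inhibition was scored as reduced luminescence.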
# % is scaled to controls: 0 for no effect and ±100 for the full control effect; potency is read from the fitted curve at half-maximal effect; tags tell the direction and shape of the fitted curve.
SMILES,Potency,"activity change, negative = inhibition"
COCCOC(=O)c1c(C)nc(SCC(=O)Nc2cccc3ccccc23)c(C#N)c1-c1ccco1,"inconclusive [inhibitor, single point]",
CCOc1ccc(C(C)=O)cc1COC(=O)C1=COCCO1,"inconclusive [inhibitor, partial curve, poor fit]",
COCc1nnc(NC(=O)c2ccc(S(=O)(=O)N3CCCC3)cc2)o1,"inconclusive [inhibitor, partial curve, poor fit]",
CCOC(=O)c1cc(-c2ccccc2)n(CCC(=O)NC(C)CC)c1C (centres undefined),"inconclusive [inhibitor, single point]",
CC(=O)N1CCc2cc(S(=O)(=O)NCCC(=O)Nc3cccc(C)c3C)ccc21,"inconclusive [inhibitor, partial curve, poor fit]",
COc1ccc(C(=O)COC(=O)C2CCC(=O)N2)cc1 (centres undefined),"inconclusive [inhibitor, single point]",
OC(COc1ccccc1)CN1CCCCCC1 (centres undefined),"inconclusive [inhibitor, full curve, poor fit]",
Cc1ccc(S(=O)(=O)N(CC(=O)NCc2ccco2)Cc2ccccc2F)cc1,"inconclusive [inhibitor, single point]",
Clc1ncnc2scc(C3COc4ccccc4O3)c12 (centres undefined),active: 2.94 µM,
O=C(NCc1cccs1)C1CCCN(S(=O)(=O)c2ccc(Br)s2)C1 (centres undefined),"inconclusive [inhibitor, single point]",
O=C(COc1ccccc1)Nc1c2c(nn1-c1ccccc1)CS(=O)C2 (centres undefined),,inactive: 19.7%
Cc1ccc(N=C2C(=O)Nc3ccc(Br)cc32)cc1,"inconclusive [inhibitor, full curve, poor fit]",
S=C(N/N=C/c1ccccc1Cl)Nc1ccccc1,"inconclusive [inhibitor, single point]",
CCOc1ccc(C(=O)Nc2cc(S(=O)(=O)Nc3ccccc3Cl)ccc2N2CCOCC2)cc1,"inconclusive [inhibitor, single point]",
COc1ccc2[nH]c(=O)c(CN(CC3CCCO3)C(=O)Nc3ccccc3OC)cc2c1 (centres undefined),"inconclusive [inhibitor, partial curve]",
Cc1ccc(SC[C@H](CC(C)C)N2CCN(CCc3ccccc3)CCC2=O)cc1,"inconclusive [inhibitor, single point]",
O=C(CC1SC(=Nc2ccc(OC(F)F)cc2)N(CCN2CCOCC2)C1=O)Nc1ccc(F)cc1F (centres undefined),"inconclusive [inhibitor, single point]",
Cc1ccc(NC(=O)CSc2nnc(C3COc4ccccc4O3)o2)c(Cl)c1 (centres undefined),,inactive: -26.3%
COCCNC(=O)C(C)OC(=O)c1cc2occc2n1C (centres undefined),,inactive: 9.84%
COc1ccc(CC(=O)OCC(=O)Nc2ccc(N3CCOCC3)cc2)cc1,"inconclusive [inhibitor, partial curve, poor fit]",
O=C(CCC(=O)N1CCN(Cc2ccccc2)CC1)Nc1nnc(C2CCCCC2)s1,,inactive: -29.6%
C=CCn1cnc2c(c1=O)c1nc3ccccc3nc1n2/N=C/c1cccc(OC)c1OC,"inconclusive [inhibitor, partial curve]",
COc1ccc(NC(=O)c2noc3c2CCC3)cc1,,inactive: -15.7%

SMILES,Potency,"activity change, negative = inhibition"
COCCn1c(SCC(=O)Nc2ccccc2C(F)(F)F)nc2ccccc2c1=O,,inactive: 36.1%
CCN1CCN(c2ncnc3c2nnn3Cc2ccccc2)CC1,"inconclusive [inhibitor, full curve, poor fit]",
CC(=O)NC(c1cc(Cl)c2ccccc2c1O)C(C)C (centres undefined),"inconclusive [inhibitor, single point]",
CCCCN(CCCC)C(=O)CCS(=O)(=O)c1ccc2c(c1)n(C)c(=O)c(=O)n2C,"inconclusive [inhibitor, single point]",
C/C(=N\NC(=O)c1ccc(F)cc1)c1ccc(NC(=O)Cc2ccccc2)cc1,,inactive: 11.8%
COCCN1CCC(CNCc2cn(-c3cc(C)ccc3C)nc2-c2ccccc2)C1 (centres undefined),active: 4.65 µM,
Cc1ccc2[nH]c(=O)c(CN(Cc3cccs3)Cc3nnnn3Cc3ccccc3)cc2c1,active: 11.7 µM,
CN1CCN(c2ncccc2S(=O)(=O)N2CCCCC2)CC1,"inconclusive [inhibitor, single point]",
CCN(CC)c1ccc(NC(=O)CCCOc2cccc(C)c2)cc1,,inactive: -8.64%
COc1ccc(Oc2nc(C)nc3c2oc2ccccc23)cc1,,inactive: -0.81%
OC(CN1CCN(c2ccccc2F)CC1)c1ccc(F)cc1 (centres undefined),"inconclusive [inhibitor, partial curve]",
COc1ccccc1C(=O)NCCC(=O)OCC(=O)Nc1ccc(S(N)(=O)=O)cc1,,inactive: 17%
COc1cccc(/C=N/NC(=S)Nc2cccc(C(=O)O)c2)c1,,inactive: 442%
CCCC[n+]1c2ccccc2cc2ccccc21,"inconclusive [inhibitor, partial curve, poor fit]",
CC(C)(C)c1ccc(C(=O)OCC(=O)NC2CC2)cc1,active: 9.28 µM,
CC(=O)OC1C2CCC1C(N1CCCC1)CC2 (centres undefined),,inactive: 20.4%
O=[N+]([O-])c1cc(S(=O)(=O)N2CCCC2)ccc1N/N=C1/CCCc2ccccc21,"inconclusive [inhibitor, partial curve, poor fit]",
O=C(O)Cc1ccc(S(=O)(=O)Nc2ccccc2C(=O)O)cc1,,inactive: 14.7%
COCc1cc(CN2CCN(CCCc3ccccc3)C(CCO)C2)ccc1OC (centres undefined),"inconclusive [inhibitor, single point]",
CN(Cc1nc(-c2cccs2)no1)CC1(N2CCOCC2)CCCCC1,"inconclusive [inhibitor, single point]",
CCCn1c(N)c(C(=O)CSc2n[nH]c(-c3ccc(C)cc3)n2)c(=O)[nH]c1=O,"inconclusive [inhibitor, partial curve, poor fit]",
CN1CCN(Cc2c(C(=O)N/N=C/c3cccc(Br)c3)nnn2-c2nonc2N)CC1,"inconclusive [inhibitor, single point]",
Clc1ccccc1CN1CCN(CCCc2ccccc2)CC1,,inactive: -9.76%

SMILES,Potency,"activity change, negative = inhibition"
CC(C)(C)c1ccc(NC(=O)CSc2nnc(-c3n[nH]c4ccccc34)o2)cc1,,inactive: 80.2%
COCCNC(=O)C(c1ccc(F)cc1)N(CCOC)C(=O)CCC(=O)Nc1ccccn1 (centres undefined),,inactive: 2.28%
CC(C)c1ccc(/C=C2\Oc3c(ccc(O)c3CN3CCN(C)CC3)C2=O)cc1,"inconclusive [inhibitor, full curve]",
CN(CC(=O)Nc1cccc(F)c1)C(=O)c1cc(S(=O)(=O)N2CCCCC2)ccc1N1CCOCC1,"inconclusive [inhibitor, single point]",
COc1ccccc1-n1cnc2c(c1=O)c1nc3ccccc3nc1n2-c1ccc(C)c(C)c1,"inconclusive [inhibitor, single point]",
COc1ccc(S(=O)(=O)N2CCCCC2)cc1NC(=O)CCNC(=O)c1ccccc1Cl,"inconclusive [inhibitor, single point]",
O=C(Cc1cccs1)Nc1ccc(Cl)c(S(=O)(=O)N2CCOCC2)c1,active: 10.4 µM,
O=C(Cc1ccc(S(=O)(=O)N2CCOCC2)s1)Nc1cc(Cl)ccc1Cl,active: 13.1 µM,
COc1cc(/C=N/NC(=O)c2cc(-c3c(C)nn(-c4ccccc4)c3C)n[nH]2)ccc1O,"inconclusive [inhibitor, partial curve]",
CCOCCCn1cnc2c(c1=O)c1nc3ccccc3nc1n2-c1ccccc1,"inconclusive [inhibitor, full curve, poor fit]",
CCOC(=O)c1ccccc1NC(=O)c1ccc(N(C)S(C)(=O)=O)cc1,,inactive: -3.21%
OC(COC(c1ccc(Cl)cc1)c1ccc(Cl)cc1)CN1CCc2ccccc2C1 (centres undefined),"inconclusive [inhibitor, single point]",
Cc1cc2ncn(-c3ncccc3[N+](=O)[O-])c2cc1C,,inactive: 0.0398%
CCN1CCN(C(=O)c2ccc(OC3CCN(CCc4ccccc4)CC3)cc2)[C@@H](C)C1=O,"inconclusive [inhibitor, single point]",
CCCCC1=CC2=C(c3ccco3)C(=O)C(C)(OC(=O)c3ccc(OC)cc3)C(=O)C2=CN1CCN1CCOCC1 (centres undefined),"inconclusive [inhibitor, single point]",
O=c1c2ccccc2ncn1-c1ccc(Br)cc1[N+](=O)[O-],"inconclusive [inhibitor, single point]",
CCOc1ccccc1CN1CCN(Cc2cc3ccccc3[nH]2)CC1CCO (centres undefined),"inconclusive [inhibitor, partial curve]",
CCOC(=O)C1CCN(C(=O)CN2C(=O)c3cccnc3Oc3ccccc32)CC1,"inconclusive [inhibitor, single point]",
Cc1ccc(S(=O)(=O)Oc2ccc(N3C(=O)C4C5CCC(C5)C4C3=O)cc2)cc1 (centres undefined),"inconclusive [inhibitor, partial curve, poor fit]",
Cc1ccc(S(=O)(=O)N(Cc2ccccc2)c2ccccc2C(=O)N2CCCCC2)cc1,"inconclusive [inhibitor, partial curve, poor fit]",
CCOc1ccccc1CN1CCNC(=O)C1CC(=O)NCCN1CCOC1=O (centres undefined),,inactive: 17.4%
CCOC(=O)NN=C1CN(S(=O)(=O)c2ccc(C)cc2)C1,,inactive: -1.88%
CC(=O)N(CCC1(c2ccc(C)cc2)CCOC(C(C)C)C1)Cc1ccco1 (centres undefined),active: 5.86 µM,
